Activity change, negative = inhibition data for 30 compounds are collected here from PubChem BioAssay AID1745853 (National Center for Advancing Translational Sciences (NCATS), 2022).

Some of the results follow. Shown are side measurements of this screen, not its main read-out; they come without a call.

Test in all cases: Primary Screen for Target Class Profiling of Small Molecule Inhibitors of Methyltransferases
The target of experiment [1] is Glycine N-methyltransferase (Homo sapiens) (UniProt Q14749). The following applies: purified enzyme, MTase-Glo SAH luminescence; measured here: GNMT inhibition; at 40 µM; stronger effect = lower value. The method in brief:
(§1)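 Each enzyme was reacted with SAM and its substrate, with compounds tested once at 40 uM; SAH formed was read by MTase-Glo luminescence.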

In experiment [2] the target is Guanidinoacetate N-methyltransferase (Homo sapiens) (UniProt Q14353). The following applies: purified enzyme, MTase-Glo SAH luminescence; measured here: GAMT inhibition; at 40 µM; stronger effect = lower value. The method in brief:
as §1

Experiment [3] addresses Histamine N-methyltransferase (Homo sapiens) (UniProt P50135). The following applies: purified enzyme, MTase-Glo SAH luminescence; measured here: HNMT inhibition; at 40 µM; stronger effect = lower value. The method in brief:
as §1

For experiment [4], the target named is Nicotinamide N-methyltransferase (Homo sapiens) (UniProt P40261). The following applies: purified enzyme, MTase-Glo SAH luminescence; measured here: NNMT inhibition; at 40 µM; stronger effect = lower value. The method in brief: as §1
For experiment [5], the target named is Phenylethanolamine N-methyltransferase (Homo sapiens) (UniProt P11086). To be noted: purified enzyme, MTase-Glo SAH luminescence; measured here: PNMT inhibition; at 40 µM; stronger effect = lower value. The method in brief:
as §1
% is scaled to controls: 0 for no effect and ±100 for the full control effect.

As to `CN(CC1CCOC1)S(=O)(=O)Cc1cccc(Cl)c1` (configuration not stated), the activity change, negative = inhibition in experiment [1] is -5.01%; in experiment [2] it was -8.31%; in experiment [3], -4.59%; in experiment [4], -10.4%; in experiment [5] it was -9.93%.
On the same counts, the results for `COc1ccc(NC(=O)N2Cc3c(sc4c3CCCC4)-n3cccc3C2c2cccc(OC)c2)cc1` (configuration not stated) are 1.15%, 0%, 4.98%, 2.02% and 4.79%.
For `COc1ccc(C(=O)Cn2nc3n(Cc4ccc(F)cc4)c(=O)c4ccccc4n3c2=O)cc1`, the activity change, negative = inhibition in experiment [1] worked out at 2.67%; in experiment [2], 0%; in experiment [3] it was 5.07%; in experiment [4], 4.35%; in experiment [5] it was 2.74%.
As for `O=C(COc1ccc2c(-c3ccccc3)cc(=O)oc2c1)c1ccccc1`, the activity change, negative = inhibition in experiment [1] is -2.79%; in experiment [2], 3.71%; in experiment [3], -2.99%; in experiment [4], -10.2%; in experiment [5], -10.6%.
For `CCOc1ccccc1OCCNC(C)Cc1ccc(OC)c(S(N)(=O)=O)c1` (configuration not stated), the activity change, negative = inhibition in experiment [1] is -4.01%; in experiment [3], -2.73%.
As to `O=C(Cn1ccc2cc(S(=O)(=O)N3CCCCC3)ccc21)NCc1ccc(F)cc1`, the activity change, negative = inhibition in experiment [1] was found to be 5.67%; in experiment [2] it was 2.43%; in experiment [3], 2.37%; in experiment [4] it was 2.67%; in experiment [5] it was 0.25%.
On the same counts, the results for `COc1cc2c(cc1O)C(c1ccc(O)cc1)C(C)C(C)C2` (configuration not stated) are -24.6%, -11%, -27.7%, -31.3% and -18.9%.
The matching figures for `CCOc1ccc(CCNC(=O)c2cc3n(n2)CC(C)(C(=O)NCc2ccccc2)N(C)C3=O)cc1` (configuration not stated): 0.17%, 0%, 4.49%, 1.84% and 2.64%.
The matching figures for `Cc1cc(C)cc(N2C(=O)c3cc4occc4n3CC2(C)C(=O)NC2CCCCCCC2)c1` (configuration not stated): 0.682%, 0.289%, 5.14%, 1.59% and 1.48%.
As to `COc1ccc(CNC(=O)Cn2ccc3cc(S(=O)(=O)N4CCC(C)CC4)ccc32)cc1`, the activity change, negative = inhibition was 5.48% in experiment [1]; 0.131% in experiment [2]; 6.28% in experiment [3]; 6.02% in experiment [4]; 5.67% in experiment [5].
On the same counts, the results for `O=C(Cn1ccc2ccccc2c1=O)N1CCCOC(Cn2cccn2)C1` (configuration not stated) are -11.1%, -10.7%, -1.95%, -8.53% and -1.55%.
Turning to `Cc1ccc(-c2ccccc2CN2CCN([S+](=O)([O-])c3cccc(C(F)(F)F)c3)CC2)cc1Cl`, the activity change, negative = inhibition in experiment [1] was -6.8%; in experiment [2], -6.67%; in experiment [3], -2.47%; in experiment [4], -11%; in experiment [5] it was -8.53%.
The matching figures for `COc1ccccc1CNC(=O)Cn1ccc2cc(S(=O)(=O)N3CCCCC3)ccc21`: 6.93%, 2.35%, 2.77%, 2.84% and 3.83%.
The matching figures for `O=C1CC2CCCC(C1)N2C(=O)c1cc(F)ccc1Br`: -2.14%, -3.76%, -0.467%, -2.19% and -1.15%.
On the same counts, the results for `CCN(CCCNC(=O)CCc1nnc2n(Cc3ccccc3)c(=O)c3ccccc3n12)c1ccccc1` are 0.504%, 3.34%, -11%, -9.85% and -2.02%.
Regarding `CCc1ccc(CN2C(=O)c3cc4ccccc4n3CC2(C)C(=O)NCCCOC(C)C)cc1` (configuration not stated), the activity change, negative = inhibition in experiment [1] was -4.58%; in experiment [2] it was 3.8%; in experiment [3], -2.4%; in experiment [4], -1.37%; in experiment [5], -3.19%.
The matching figures for `Cc1nc(-c2cn(C3CCCN(C(=O)C(C)Oc4ccccc4)C3)nn2)no1` (configuration not stated): 0.953%, 1.53%, -1.15%, 0.165% and -1.41%.
As for `COC(=O)c1cc2n(n1)CC(C)(C(=O)NC1CCCCCC1)N(c1ccc(F)cc1C)C2=O` (configuration not stated), the activity change, negative = inhibition was 4.57% in experiment [1]; 0.049% in experiment [2]; -6.27% in experiment [3]; 11.6% in experiment [4]; 7.88% in experiment [5].
`CCCN1C(=O)c2cc(C(=O)N3CCN(c4ccccc4F)CC3)nn2CC1(C)C(=O)NC1CCCC1` (configuration not stated): the activity change, negative = inhibition is 6.15% in experiment [1]; 0% in experiment [2]; 11.4% in experiment [3]; 12% in experiment [4]; 4.69% in experiment [5].
With `N#Cc1ccc(O[C@@H]2CCOC[C@H]2NC(=O)CCCn2cncn2)cc1`, the activity change, negative = inhibition was -2.31% in experiment [1]; 1.7% in experiment [2]; 1.71% in experiment [3]; 0.407% in experiment [4]; -15.2% in experiment [5].
Turning to `Cc1oc(C(=O)O)cc1COc1ccc2c(-c3ccccc3)cc(=O)oc2c1C`, the activity change, negative = inhibition is -45.6% in experiment [1]; -6.03% in experiment [2]; -17.9% in experiment [3]; -16.2% in experiment [4]; -30.5% in experiment [5].
The matching figures for `CCC(C)NC(=O)c1ccc2c(=O)n(C)c3nn(CC(=O)Nc4ccc(Cl)cc4)c(=O)n3c2c1` (configuration not stated): 2.4%, 3.03%, 0.206%, 0.429% and -2.46%.
Take `CC1(C)CC[C@]2(C(=O)O)CC[C@]3(C)C(=CCC4[C@@]5(C)CC[C@H](O[C@@H]6O[C@H](C(=O)O)[C@@H](O)[C@H](O)[C@H]6O)C(C)(CO)C5CC[C@]43C)C2C1` (some centres not stated): the activity change, negative = inhibition is 3.13% in experiment [1]; -3.28% in experiment [2]; 7.3% in experiment [3]; -13.9% in experiment [4]; -2.14% in experiment [5].
As to `O=C(c1cc(CC2(NCc3ccccc3F)COC2)no1)N1CCCCC1`, the activity change, negative = inhibition in experiment [1] is -7.21%; in experiment [2], -8.94%; in experiment [3], -4.09%; in experiment [4], -9.23%; in experiment [5], 9.87%.
As to `CC1CCC2C(C(=O)O)=COC(O[C@@H]3O[C@H](CO)[C@@H](O)[C@H](O)[C@H]3O)C12` (some centres not stated), the activity change, negative = inhibition is -3.85% in experiment [1]; -7.03% in experiment [2]; 4.33% in experiment [3]; -13.7% in experiment [4]; -9.31% in experiment [5].
On the same counts, the results for `COc1cccc(N2C(=O)c3cc(-c4ccccc4)nn3CC2(C)C(=O)NCc2ccccc2OC)c1` (configuration not stated) are -7.31%, 1.39%, -6.21%, -11.2% and -10.5%.
On to `O=C1C(Cc2ccc(O)cc2)N2C(=O)CCN(C(=O)NCc3ccccc3)C2CN1Cc1cccc2ccccc12` (configuration not stated), for which the activity change, negative = inhibition is -4.22% in experiment [1]; 6.38% in experiment [2]; 6.19% in experiment [3]; -19% in experiment [4]; -4.71% in experiment [5].
The matching figures for `CCN(c1cc(-c2ccc(CN3CCOCC3)cc2)cc(C(=O)NCc2c(C)cc(C)[nH]c2=O)c1C)C1CCOCC1`: -7.2%, 0.224%, -3.75%, -18.8% and -10.9%.
For the compound `O=S(=O)(c1ccccc1)c1nnn2c1nc(NC1CCN(Cc3ccccc3)CC1)c1cc(Cl)ccc12`, the activity change, negative = inhibition in experiment [1] is -2.04%; in experiment [2] it was 3.82%; in experiment [3], -6.74%; in experiment [4], -5.2%; in experiment [5], -4%.
The matching figures for `CC1CC(O)C2(C)C(C(=O)O)=CCCC2C1(C)CCc1ccoc1` (configuration not stated): 0.768%, 2.21%, 8.8%, -17.1% and 5.07%.
